From the supplement of paper PMC3334620
The full ranking holds about 33,000 sequences; the median of “E-score (-0.5 to 0.5)” is about -0.043, and the highest 2% start at about 0.37. The list shows a part of the results.

target: T1, Upc2 (UniProt Q12151); experiment: PBM E-score (8-mer binding enrichment) (E-score (-0.5 to 0.5)); higher = stronger / more preferred TF binding; most listed sequences are background and not binding sites; details: protein concentration: 200 nM; construct: GST-full length
T1 sequence: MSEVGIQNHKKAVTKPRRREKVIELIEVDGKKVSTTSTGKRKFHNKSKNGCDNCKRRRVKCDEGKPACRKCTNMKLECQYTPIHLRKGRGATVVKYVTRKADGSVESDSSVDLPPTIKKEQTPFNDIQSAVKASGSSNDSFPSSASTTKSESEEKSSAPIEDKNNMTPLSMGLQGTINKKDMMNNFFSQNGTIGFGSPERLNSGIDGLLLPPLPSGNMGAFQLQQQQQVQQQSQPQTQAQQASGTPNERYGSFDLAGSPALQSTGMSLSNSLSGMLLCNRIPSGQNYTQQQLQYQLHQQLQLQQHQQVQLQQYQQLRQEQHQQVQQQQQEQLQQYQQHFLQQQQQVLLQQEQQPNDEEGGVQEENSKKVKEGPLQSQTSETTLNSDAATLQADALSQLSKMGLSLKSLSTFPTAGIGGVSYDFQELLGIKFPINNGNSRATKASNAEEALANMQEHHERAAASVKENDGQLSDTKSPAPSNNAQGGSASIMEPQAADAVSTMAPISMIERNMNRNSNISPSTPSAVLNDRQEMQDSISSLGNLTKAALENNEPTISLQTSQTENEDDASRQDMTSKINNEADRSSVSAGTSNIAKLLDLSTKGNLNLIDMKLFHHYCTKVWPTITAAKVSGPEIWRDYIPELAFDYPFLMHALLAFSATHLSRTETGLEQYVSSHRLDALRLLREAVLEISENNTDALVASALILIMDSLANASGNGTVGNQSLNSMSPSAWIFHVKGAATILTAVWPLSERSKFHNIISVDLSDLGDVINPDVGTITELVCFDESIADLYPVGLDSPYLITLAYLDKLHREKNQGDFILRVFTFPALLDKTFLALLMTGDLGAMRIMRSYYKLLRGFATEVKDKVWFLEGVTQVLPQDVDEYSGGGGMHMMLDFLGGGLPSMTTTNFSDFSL
How it was run: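 Yeast transcription factors, full-length or as DNA-binding domains, were expressed with a GST tag using PURExpress in vitro transcription/translation. At about 100-200 nM they were applied to universal all-10-mer Agilent arrays, double-stranded by primer extension on fresh or once-stripped slides. Fluorescent anti-GST detected bound protein, and masliner normalised the scans. E-scores for ungapped eight-base words, pooled with reverse complements, came from the Universal PBM Analysis Suite.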

Sequence | PBM E-score
AACGCGAA | 0.23
GTCGAGTA | 0.0357
GTTAGACA | -0.122
ACGCCGCC | -0.0501
AGTGAGTA | 0.0846
CACTTTTA | 0.027
AATGCGTG | -0.165
AATCCGGA | -0.204
CGCCTCAA | -0.0172
CGTGTGTA | -0.00606
CACTGAGG | -0.105
CCAGAATC | -0.0372
GCTCTAAC | -0.101
ATTCTGAC | -0.0715
ATGTGAAG | 0.0151
TGTAGTAA | 0.0713
AATTGAAA | 0.0218
CATCATTC | -0.0039
GATAATCA | -0.215
ATGAGTGA | -0.101
TCAACCCA | 0.00722
AGGTAAGC | 0.013

Sequence | PBM E-score
CAGAAGTA | -0.191
CTCGGCTC | -0.0812
CATGGGGC | -0.34
GCAGCCAA | -0.15
ACTGTTAT | -0.0931
AAGTAACT | -0.161
ATCTGCAT | -0.0901
CCAGCCGG | -0.142
TCAGTGGA | -0.294
ACAAACGA | 0.466
AGTGATAG | -0.067
TGCACGAA | 0.145
TCAAAAAA | -0.122
ATCGCGAA | 0.205
AAGGCGAT | 0.0551
CTGGGCGA | -0.158
CGAGTTGC | 0.129
ATCGACCG | 0.00067
GCCTCACA | 0.0293
CGAAATCA | 0.273
CGAGAAGA | 0.0586
AACACTTA | 0.0395

Sequence | PBM E-score
CATGGATA | -0.0903
GCGAAAAC | 0.11
CGTTAACA | 0.274
CGGGAGTC | -0.218
ATAACAGG | -0.136
AATAACGT | 0.133
GAGCCATA | 0.0879
AAACCATA | 0.104
AAGAGCAC | -0.0208
CCACGCGA | -0.0516
AAGATGAG | -0.136
GAGCTAGC | -0.00939
CTCGCTAC | 0.235
GATAGTGA | 0.139
CCAAGGGG | -0.0169
ACAGTCAG | 0.0967
ACAATTAA | 0.109
CACCAACC | -0.0946
CACACTGG | -0.2
AGAAGCGA | 0.158
CAATCAGA | -0.0191
CGTGTCGC | 0.217

Sequence | PBM E-score
ACGCACTG | 0.0653
AAAAGACA | 0.0436
AATCATCA | -0.0622
CATGGAAA | -0.0449
ACAGCAGG | -0.186
GAGTGGGA | 0.0635
CCACGCGG | -0.171
CCCATTAA | -0.105
GCTATTTA | -0.0825
GAAGCATA | 0.00504
ATGACGGA | -0.102
CTGTTTAC | 0.142
ACTCTGCC | 0.0158
ACCGAGAA | 0.211
CTCCTAAC | 0.0295
GTTATCCA | -0.154
CCATAGAC | -0.166
AATTCATA | -0.129
CCAGTTAA | 0.173
CCAAACAG | -0.17
